# Measured values taken from paper PMC10668032.
# This is one part of the list. At the low end of the ranking the order means little.
# Biological target: SIX1 homeodomain (reference allele) (UniProt Q15475)
# Test: universal protein binding microarray
# Conditions: Universal all-10-mer PBM (8x60K, AMADID 030236), 300 nM GST-tagged protein, Alexa Fluor 488 anti-GST; buffer, salt, pH and temperature not stated; high values mean tight binding; most listed sequences are background and not binding sites; double strand, one strand shown
row,Sequence,binding signal
1,GTCCGGAC,-0.00288 E-score
2,ACGCCCTC,-0.108 E-score
3,AACTCCTT,-0.235 E-score
4,ACGTGAGC,-0.0691 E-score
5,AATCACAC,0.0767 E-score
6,GCGAATCA,-0.23 E-score
7,CTACTTTA,-0.0152 E-score
8,AGCCCTTC,-0.143 E-score
9,CCGCGGTC,-0.137 E-score
10,AGCTCTAT,0.0837 E-score
11,AGCACCTA,-0.109 E-score
12,ACAGTGCC,0.069 E-score
13,GTGAGCGA,0.0646 E-score
14,ACGCGTGA,0.0637 E-score
15,AGAAACAA,-0.229 E-score
16,AGTACATG,0.0723 E-score
17,GCAATTGA,-0.0701 E-score
18,ACGTGATC,0.302 E-score
19,CCAGGTAG,-0.00324 E-score
20,GCTTCAAA,-0.173 E-score
21,TCCGTCGA,0.0718 E-score
22,AAAGACGC,-0.138 E-score

row,Sequence,binding signal
1,ATTGTCTC,0.002 E-score
2,CAAGAGGA,-0.117 E-score
3,ATAAATCG,-0.175 E-score
4,ATCCGGCC,0.316 E-score
5,AGTGGAAC,-0.054 E-score
6,ATATGAGA,0.209 E-score
7,AGAGGTGG,-0.201 E-score
8,CAGGCGCG,-0.131 E-score
9,GTATGAGA,0.167 E-score
10,CTGAGCAA,-0.106 E-score
11,TAGGTTGA,0.132 E-score
12,AAGCATCC,-0.0588 E-score
13,CTTGGTTA,-0.0175 E-score
14,ATTAGTAG,0.0515 E-score
15,CCGAGCTC,0.0627 E-score
16,AGGAGACA,0.00869 E-score
17,CTTCGACA,-0.144 E-score
18,AAGATCAC,0.239 E-score
19,ACGAAATG,-0.0953 E-score
20,TATTGAGA,0.237 E-score
21,CTTCCCTC,-0.0832 E-score
22,CTCGAAAC,-0.104 E-score

row,Sequence,binding signal
1,GTGATGAA,0.0121 E-score
2,CCAGATGG,0.0477 E-score
3,CGACATCA,-0.0552 E-score
4,CCATTAGC,-0.12 E-score
5,CGGTTGCC,-0.091 E-score
6,ATTGAATA,0.196 E-score
7,CGGTCCTA,-0.207 E-score
8,CCAGGAAA,-0.0311 E-score
9,ATTGAGGC,-0.125 E-score
10,TCGACAAA,-0.161 E-score
11,AGTTGTAC,-0.158 E-score
12,AGACCCAC,-0.149 E-score
13,CCGGAATA,0.162 E-score
14,GTAGTATA,0.267 E-score
15,TAGTAGCA,0.127 E-score
16,ATGGATAC,0.447 E-score
17,CTACGGTA,-0.0103 E-score
18,AGATGCGC,-0.155 E-score
19,AACAAAGG,-0.247 E-score
20,GAAGGGTA,0.213 E-score
21,AATATTGG,0.138 E-score
22,GCTGTAAA,-0.33 E-score

row,Sequence,binding signal
1,GAGCACGC,-0.143 E-score
2,AGCGGGAA,-0.243 E-score
3,ACGTCGGG,0.114 E-score
4,CCCAGCCG,-0.0218 E-score
5,CGTGGTTA,-0.122 E-score
6,CACTCACG,-0.0229 E-score
7,ATACGGAC,0.193 E-score
8,TTAGCAAA,-0.275 E-score
9,AGACATAA,-0.0636 E-score
10,GCGTAGTA,-0.0752 E-score
11,GGACTGCC,-0.291 E-score
12,ATTTCCGG,-0.0202 E-score
13,CATGTCGC,0.00449 E-score
14,CCGAAAAG,-0.0906 E-score
15,ACAGACTC,-0.265 E-score
16,TGGAGCCA,-0.219 E-score
17,GCTTAGTA,-0.0597 E-score
18,GGCTCAGA,0.0979 E-score
19,CGACATCG,-0.0482 E-score
20,CGCTAGAA,-0.0571 E-score
21,GGGTATCA,0.497 E-score
22,ACGTGACG,-0.229 E-score

row,Sequence,binding signal
1,CCGTAAGG,0.0211 E-score
2,CAGTCGTA,-0.101 E-score
3,ATTCCCAG,-0.0378 E-score
4,AAATAACT,-0.175 E-score
5,AGGTCATA,0.0508 E-score
6,ACGTCCGC,-0.19 E-score
7,CAGTAATC,0.0968 E-score
8,GACTATTA,-0.0403 E-score
9,AGGTAGTC,0.00526 E-score
10,TCCGAGCA,-0.0193 E-score
11,AACGGGAC,-0.281 E-score
12,GGGAAGTA,0.0408 E-score
13,AGTTAGAA,-0.12 E-score
14,CACCGTGC,0.129 E-score
15,CTTTTAGA,-0.103 E-score
16,CAATCGAG,-0.0672 E-score
17,CAGGCCAA,-0.188 E-score
18,AATTGAGC,0.013 E-score
19,AGACCGGC,0.0106 E-score
20,ACATGGGG,-0.0565 E-score
21,GGAACCGA,-0.00911 E-score
22,CTCTATTC,0.0489 E-score
